According to article PMC12136788:
The other results are listed elsewhere or left out.

T1: UNK ZnF1-3 (human, UniProt Q9C0B0 31-174)
T1 sequence: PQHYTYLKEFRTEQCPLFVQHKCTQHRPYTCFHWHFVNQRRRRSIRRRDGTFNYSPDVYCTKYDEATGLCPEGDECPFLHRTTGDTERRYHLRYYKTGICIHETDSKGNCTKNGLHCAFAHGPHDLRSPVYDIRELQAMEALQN

B1: chr12:49580477:49580478:-_ENSG00000167552_ENST00000550767|hu_hu|FALSE|FALSE (ssRNA)
RNA: GGGAGUUCUACAGUCCGACGAUCCACUGCCCGGGGCACAUGCUUGCCAGCCCCCGUCUCACUGAAGAAGGUGUUGAAGGAAUCAUCUCCUCCCCCAAUGGUCUUGUCACUUGGCAUCUGGCCAUCGGGCUGGAUGCCGUGUUCCAACAGAGGAUUGAGCAUCA
B2: chr5:128448638:128448639:+_ENSG00000066583_ENST00000173527|hu_mus|hu_hu_hu_mus_False|18_68 (ssRNA)
RNA: GGGAGUUCUACAGUCCGACGAUCGGCACUCGCCUUAAUUAGGUUCUGAAUUUCCUUGAACUUCGGGUGGUCCUUAUCAGCCACCAGCUGUAGGAGGACAGCCUCACUAGUGGUCACUAUGAUCCCGGUGCGGGCAAGACGCUCCAACAGAGGAUUGAGCAUCA
B3: chr11:12883819:12883820:+_ENSG00000187079_ENST00000361905|hu_hu|FALSE|FALSE (ssRNA)
RNA: GGGAGUUCUACAGUCCGACGAUCAAUGUGACUAGACACCUGUUUUCUGGUCCUCGUCUUGCCUGUCCUGAGUUUGAUGUAUCUGGCUAUCAAUUCAUUCCUACCAUACAUUUUGCCUUCGUCUGAUAAGAUGAUUUUCCUCCUCAACAGAGGAUUGAGCAUCA
B4: 38560734_38562653_2154_CDS_ENSG00000131747_ENST00000423485|human|control|control (ssRNA)
RNA: GGGAGUUCUACAGUCCGACGAUCCAAGUAAUCCUCAGGAAGCCCAAGUAACUUUCGUUGUCUUCUAUCCUCCAUGAAAUUAGUUAACCAUUCCUUUCGAUCAUCUAUCUGUUUUUUGCUAAAGGCCAGGCUGAUAGCAGCAUCCAACAGAGGAUUGAGCAUCA
B5: chr2:216981417:216981418:+_ENSG00000079246_ENST00000392132|hu_hu|hu_hu_hu_mus_True|38_48 (ssRNA)
RNA: GGGAGUUCUACAGUCCGACGAUCCUGAUACUGGUCCUUGCCAGCAAGGGCAUUAUCAGUGCCAUCUGUGCCAUAGAGGACUAACGCAAUCUCAUCCUUGUUCUCAGAAAAUACCUGUCGUUGGACAAACAUAGUCAUCACUUUCAACAGAGGAUUGAGCAUCA
B6: chr7:54825262:54825263:-_ENSG00000132432_ENST00000352861|hu_hu|hu_hu_hu_mus_False|8_68 (ssRNA)
RNA: GGGAGUUCUACAGUCCGACGAUCCUGCCGGCUGGGCUCCACAAACUGCAUUACCUGAUCCAUGUUUUACCCAACCGGGAUUGAGAGCGUAGAGACACGUAGCUCAGGAGAGAACCGAGCCCAACGGCACCGGAACCUGGCAACCAACAGAGGAUUGAGCAUCA
B7: chr1:130485734:130485735:-_ENSMUSG00000045382_ENSMUST00000052172|mus_mus|mus_mus_mus_hu_False|38_68 (ssRNA)
RNA: GGGAGUUCUACAGUCCGACGAUCGAUGAAGGAGUCGAUGCUGAUCCCAAUGUAGUAAGGCAGCCAACAGGCAAAGAAAGCCAGGAUGAGGAUGACUGUCGUCUUGAGGGCCUUGCGCUUCUGGUGGCCCUUGGAGUGUGACAGCAACAGAGGAUUGAGCAUCA
B8: 125748651_125751648_737_CDS_ENSG00000011454_ENST00000373647|human|control|control (ssRNA)
RNA: GGGAGUUCUACAGUCCGACGAUCCCCUCUGACACAGAAGAGGAUUUUGUAGAUAGGGUAGUUUGCUAUUUCAGUGUUUGUCUGAGGAUCUAAGAGUCUCACAAUUCCUUCAGACACAUUCGGCACUGAAAGGGUAACAUCUAGCAACAGAGGAUUGAGCAUCA
B9: chr12:53620312:53620313:+_ENSMUSG00000035133_ENSMUST00000110725|mus_hu|FALSE|FALSE (ssRNA)
RNA: GGGAGUUCUACAGUCCGACGAUCAGGUUUAAUAGGUGGAGGCACUUUAUGGUUGCGUUCAUGGUCAUGACAGUUUGGGGUACUAUGAAUAGGAUACUCAUUUCCUUCCAAAUCUAAUCUAUAUCUGGAACGGUCACUAGGUGUCAACAGAGGAUUGAGCAUCA
B10: 46328274_46342260_651_CDS_ENSG00000139218_ENST00000369367|human|control|control (ssRNA)
RNA: GGGAGUUCUACAGUCCGACGAUCGUAUAAAGAGUUUCUAUGUAUCCACUUCAAGUCACAAACUUUUGCACUUAAUAGAUCUUCUCUUACGAUGGCUUUUCUUCUUAUACAGCUUUUAGAAUUUUCAUGACAGGAGACCUGUUUCAACAGAGGAUUGAGCAUCA
B11: chr11:118894041:118894042:+_ENSG00000196655_ENST00000359005|hu_hu|FALSE|FALSE (ssRNA)
RNA: GGGAGUUCUACAGUCCGACGAUCAGGUUCAGCCUAUGACCCAGGUCCAAAAGUUCCAGCCUUCUCUGCCACCUCCAGAGCUAGCUUCAGGUUCUGGUCAAAGAGCUCACACCUGAUAGGCAUUUCUGUCAGUGUCUGGUAGCACAACAGAGGAUUGAGCAUCA
B12: 96291751_96294445_1877_CDS_ENSG00000048828_ENST00000277165|human|control|control (ssRNA)
RNA: GGGAGUUCUACAGUCCGACGAUCGAUUUCACCCUUCGUCAGGACAUGGAAGAUGUAGGGGUACAUCAGCCCCUUCUUGUGCCUGUGCUCGGCCACUCUCAGCACCUCAGGUGCGACGGGGGGCAGGGGAGGUGUGGUGAUGUCCAACAGAGGAUUGAGCAUCA
B13: 94973500_94973620_1963_3pUTR_ENSMUSG00000021687_ENSMUST00000022197|mouse|control|control (ssRNA)
RNA: GGGAGUUCUACAGUCCGACGAUCCACCCAAACUUUUGCUGACCUUGUUCCUUCGUUAUUAAUAGAGGGGGGAAAAGAAAGAAACAUGGUGUCAUGUCCAAUGUAUAGUCUGAAUCUCUACUGACUCCUGGAAGAACUUCUGUGCAACAGAGGAUUGAGCAUCA
B14: chr1:17152557:17152558:+_ENSMUSG00000025777_ENSMUST00000026879|mus_mus|motif|central (ssRNA)
RNA: GGGAGUUCUACAGUCCGACGAUCUUCUCAUCAAAUUAUCCACUACCAUCCAUAAGCCAUAUUUACUUGAGACAUUCAUCGGUAUAUUACUUGUAUGCAUAAAUAGGGCUGUCGAGGCCAAGGUUCCCAGGACUGAAGACAAUCCAACAGAGGAUUGAGCAUCA
B15: chr3:47957716:47957717:-_ENSG00000047849_ENST00000395734|hu_hu|FALSE|FALSE (ssRNA)
RNA: GGGAGUUCUACAGUCCGACGAUCAUCCUCAGUCAGGGCCACCUCCAUUUCUGGAGGCAGACAUACGUUCUUGAUGAGAACUACUUCUGUUUCUGGAGGUGGAGUCACAUCCUUGCCCAGAGCCAUUUCUGUUUCUGAUAGUGGCAACAGAGGAUUGAGCAUCA
B16: chr16:94664741:94664742:+_ENSMUSG00000040785_ENSMUST00000117648|mus_hu|mus_mus_mus_hu_False|1_108 (ssRNA)
RNA: GGGAGUUCUACAGUCCGACGAUCUGGCAUGGAUCUUGGUAGCUGAUAUUCAGGAGAAAGGCUGGCCAAGGGUGUAUAUAUGCUGGUGUACUGGGGCAAACCUGGUAACACGUUUAUGUAUGCUGGCGGUGUCUGGGUGCCAAACAACAGAGGAUUGAGCAUCA
B17: chr9:2804355:2804356:-_ENSG00000080608_ENST00000397885|hu_hu|FALSE|FALSE (ssRNA)
RNA: GGGAGUUCUACAGUCCGACGAUCUUCCAUCUUGCUCUUAACUCUUUCCACCUAUGUGCUCAGUUUUUCAAGUAGAAUUUCUAUUCCUUUGCUGGUGCUUUUGGUUUUUUCCAAUGUAGGAAUCAAGCUUUUCAGUGCAGCUUUCAACAGAGGAUUGAGCAUCA
B18: chr9:54997157:54997158:+_ENSMUSG00000032307_ENSMUST00000059555|mus_hu|FALSE|FALSE (ssRNA)
RNA: GGGAGUUCUACAGUCCGACGAUCGUGGCGCUUCCUUUGUAACCGACUCCAGCGGCAGGAGGCGGCGGCCCCGCGGCUUAAAAGGGCAACAGCGACGCCGCCCCCGCUACCGCCUGGGAAAGGGCUGCCCCCACCCCGCCCCCGCAACAGAGGAUUGAGCAUCA
B19: chr8:97196980:97196981:+_ENSMUSG00000031776_ENSMUST00000034228|mus_mus|motif|central (ssRNA)
RNA: GGGAGUUCUACAGUCCGACGAUCGCCUGCUGGUCUGGUGAACUCAUGUCAAUCACACCGGUUGUGCGAAGGUGGGACCGGGUGCCGCAGGUUGUUCUGGGAAGCUGGCGUAGAAGAUGACUUACACAGAGAAGUCACAACCAACAACAGAGGAUUGAGCAUCA
B20: 63669693_63669813_2693_CDS_ENSMUSG00000028364_ENSMUST00000107372|mouse|control|control (ssRNA)
RNA: GGGAGUUCUACAGUCCGACGAUCGCGGGAGAUGAGGGACACCUCAUACUCCGUGUCAGGUCUCAGGUUCCCGAUGGAGUACUGGUUGUCUUCGUGUGUGAGGUCGAUGGUGGUACGGUCUCCAGGUACAUCCUUGAUGCCAUACAACAGAGGAUUGAGCAUCA
B21: chr14:92628060:92628061:+_ENSG00000165934_ENST00000298875|hu_hu|FALSE|FALSE (ssRNA)
RNA: GGGAGUUCUACAGUCCGACGAUCUUGACAUCAUGUCCUUUAUACAAUGGCAUAUUGUUCAUAUAAAAGGUCUCUUAUCCUAUAAAAAUCUUGACAAAGGCAGCCUUCUAAUCCAAUGCGUCCAGUUUCCGUUCUGCGGACUGCCAACAGAGGAUUGAGCAUCA
B22: chr12:39756943:39756944:-_ENSG00000139116_ENST00000544797|hu_mus|hu_hu_hu_mus_False|68_88 (ssRNA)
RNA: GGGAGUUCUACAGUCCGACGAUCGGUUUGGCUGUUACCCCCAAGGGAAUCCUGUAGGAGUCUUGUCAGCUUGGAAUCUCUGUAAGGGACAUGGGUGGCUCUCUUGCUCUUGUCCCCCAAGGCGCUGAUUACAUUCCCAAGAGCCAACAGAGGAUUGAGCAUCA

The binders below were run against T1, UNK ZnF1-3 (assay: nsRBNS (natural sequence RNA bind-n-seq); RBNS binding buffer (assumed for nsRBNS): 25 mM Tris pH 7.5, 150 mM KCl, 3 mM MgCl2, 0.01% Triton X-100, 500 ug/ml BSA, 20 U/ml SUPERase-In, 4 C; UNK is unkempt and MSI1 is Musashi-1; names of the RNAs are library labels; protein concentration not given here; high values mean tight binding).

Binder	binding signal
B1	0.659 enrichment R
B2	0.507 enrichment R
B3	0.39 enrichment R
B4	0.895 enrichment R
B5	0.626 enrichment R
B6	0.722 enrichment R
B7	1.01 enrichment R
B8	0.766 enrichment R
B9	0.781 enrichment R
B10	0.624 enrichment R
B11	0.615 enrichment R
B12	0.869 enrichment R
B13	1.31 enrichment R
B14	1.43 enrichment R
B15	0.658 enrichment R
B16	1.04 enrichment R
B17	0.306 enrichment R
B18	0.731 enrichment R
B19	0.993 enrichment R
B20	0.523 enrichment R
B21	0.969 enrichment R
B22	0.685 enrichment R
